# From the supplement of paper PMC11741623
# The other results are listed elsewhere or left out. Interaction screen of human proteins with wild-type SARS-CoV-2 proteins by split-DHFR complementation in yeast, 1 µg/mL methotrexate. Value = fitness of the pair (three or more lineages) minus that of the viral protein without a human partner, on a scale set by negative (0) and fused positive (1) controls, mean of up to three cultures; higher = more likely to interact. Active = false discovery rate below 0.05 (one-sided t-test) in at least one culture. Nearly all pairs are not hits, and differences among them are mostly noise (correlation between cultures about 0.3); most hits were seen in one culture only. Human sequences are the Swiss-Prot entries looked up by gene name; the clone may be another isoform. NSP2 values were corrected by the authors for a growth advantage. Listed are human proteins with a hit and a random twelfth of the others.
# B1: MCFD2, Q8NI22 (protein)
# chain: MTMRSLLRTPFLCGLLWAFCAPGARAEEPAASFSQPGSMGLDKNTVHDQEHIMEHLEGVINKPEAEMSPQELQLHYFKMHDYDGNNLLDGLELSTAITHVHKEEGSEQAPLMSEDELINIIDGVLRDDDKNNDGYIDYAEFAKSLQ
# B2: EPSTI1, Q96J88 (protein)
# chain: MNTRNRVVNSGLGASPASRPTRDPQDPSGRQGELSPVEDQREGLEAAPKGPSRESVVHAGQRRTSAYTLIAPNINRRNEIQRIAEQELANLEKWKEQNRAKPVHLVPRRLGGSQSETEVRQKQQLQLMQSKYKQKLKREESVRIKKEAEEAELQKMKAIQREKSNKLEEKKRLQENLRREAFREHQQYKTAEFLSKLNTESPDRSACQSAVCGPQSSTWKLPILPRDHSWARSWAYRDSLKAEENRKLQKMKDEQHQKSELLELKRQQQEQERAKIHQTEHRRVNNAFLDRLQGKSQPGGLEQSGGCWNMNSGNSWGI
# Target: SARS-CoV-2 M
# Assay: yeast fitness gain over the viral ORF with no human partner (scaled fitness); higher = more likely to interact
# Procedure: (§1)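 Split mouse DHFR complementation in pooled diploid yeast: human ORFeome clones carry one fragment and viral ORFs the other; barcoded lineages compete in 1 µg/mL methotrexate and fitness is read by barcode sequencing in up to three cultures.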
row,Binder,yeast fitness gain
1,B1,inactive: -0.118
2,B2,inactive: -0.12

# Target: SARS-CoV-2 N
# Assay: as above
# Procedure: as §1
row,Binder,yeast fitness gain
1,B1,inactive: 0.117

# Target: SARS-CoV-2 NSP1
# Assay: as above
# Procedure: as §1
row,Binder,yeast fitness gain
1,B1,inactive: -0.00793
2,B2,inactive: 0.136

# Target: SARS-CoV-2 NSP10
# Assay: as above
# Procedure: as §1
row,Binder,yeast fitness gain
1,B1,inactive: 0.0416
2,B2,inactive: -0.0619

# Target: SARS-CoV-2 NSP12
# Assay: as above
# Procedure: as §1
row,Binder,yeast fitness gain
1,B1,inactive: -0.0683
2,B2,inactive: -0.263

# Target: SARS-CoV-2 NSP13
# Assay: as above
# Procedure: as §1
row,Binder,yeast fitness gain
1,B1,inactive: 0.0196
2,B2,inactive: -0.043

# Target: SARS-CoV-2 NSP15
# Assay: as above
# Procedure: as §1
row,Binder,yeast fitness gain
1,B1,inactive: -0.21
2,B2,inactive: -0.0403

# Target: SARS-CoV-2 NSP16
# Assay: as above
# Procedure: as §1
row,Binder,yeast fitness gain
1,B1,inactive: -0.095
2,B2,inactive: -0.0673

# Target: SARS-CoV-2 NSP2
# Assay: as above
# Procedure: as §1
row,Binder,yeast fitness gain
1,B1,inactive: -0.12
2,B2,inactive: -0.251

# Target: SARS-CoV-2 NSP5
# Assay: as above
# Procedure: as §1
row,Binder,yeast fitness gain
1,B1,inactive: -0.0328
2,B2,inactive: -0.112

# Target: SARS-CoV-2 NSP6
# Assay: as above
# Procedure: as §1
row,Binder,yeast fitness gain
1,B1,inactive: -0.213
2,B2,inactive: 0.00969

# Target: SARS-CoV-2 ORF10
# Assay: as above
# Procedure: as §1
row,Binder,yeast fitness gain
1,B1,inactive: 0.00465
2,B2,inactive: 0.0106

# Target: SARS-CoV-2 ORF3A
# Assay: as above
# Procedure: as §1
row,Binder,yeast fitness gain
1,B1,inactive: 0.0585

# Target: SARS-CoV-2 ORF3B
# Assay: as above
# Procedure: as §1
row,Binder,yeast fitness gain
1,B1,inactive: 0.0066
2,B2,inactive: -0.0704

# Target: SARS-CoV-2 ORF6
# Assay: as above
# Procedure: as §1
row,Binder,yeast fitness gain
1,B1,inactive: -0.0958
2,B2,inactive: 0.0117

# Target: SARS-CoV-2 ORF7A
# Assay: as above
# Procedure: as §1
row,Binder,yeast fitness gain
1,B1,inactive: -0.0147
2,B2,inactive: -0.0891

# Target: SARS-CoV-2 ORF8
# Assay: as above
# Procedure: as §1
row,Binder,yeast fitness gain
1,B1,inactive: 0.00679
2,B2,inactive: 0.0586

# Target: SARS-CoV-2 ORF9B
# Assay: as above
# Procedure: as §1
row,Binder,yeast fitness gain
1,B1,inactive: -0.0149
2,B2,inactive: -0.103

# Target: SARS-CoV-2 ORF9Bwu (the 73-codon ORF)
# Assay: as above
# Procedure: as §1
row,Binder,yeast fitness gain
1,B1,inactive: -0.0282
2,B2,inactive: -0.0428

# Target: SARS-CoV-2 S
# Assay: as above
# Procedure: as §1
row,Binder,yeast fitness gain
1,B1,inactive: 0.0158
2,B2,inactive: -0.0254

# Target: SARS-CoV-2 NSP7
# Assay: as above
# Procedure: as §1
row,Binder,yeast fitness gain
1,B2,inactive: -0.171

# Target: SARS-CoV-2 NSP8
# Assay: as above
# Procedure: as §1
row,Binder,yeast fitness gain
1,B2,inactive: -0.047

# Target: SARS-CoV-2 ORF7B
# Assay: as above
# Procedure: as §1
row,Binder,yeast fitness gain
1,B2,inactive: 0.0843
